In all, about 310,000 compounds went through this assay and about 2,200 (0.71%) showed an effect of 50% or more. Effects have a minus sign here. The list shows a part of the results.
target: human ether-à-go-go-related gene (hERG) potassium channel (human, UniProt Q12809); assay: primary screen, population patch clamp on CHO cells stably expressing hERG
Sequence (Q12809 whole entry, looked up): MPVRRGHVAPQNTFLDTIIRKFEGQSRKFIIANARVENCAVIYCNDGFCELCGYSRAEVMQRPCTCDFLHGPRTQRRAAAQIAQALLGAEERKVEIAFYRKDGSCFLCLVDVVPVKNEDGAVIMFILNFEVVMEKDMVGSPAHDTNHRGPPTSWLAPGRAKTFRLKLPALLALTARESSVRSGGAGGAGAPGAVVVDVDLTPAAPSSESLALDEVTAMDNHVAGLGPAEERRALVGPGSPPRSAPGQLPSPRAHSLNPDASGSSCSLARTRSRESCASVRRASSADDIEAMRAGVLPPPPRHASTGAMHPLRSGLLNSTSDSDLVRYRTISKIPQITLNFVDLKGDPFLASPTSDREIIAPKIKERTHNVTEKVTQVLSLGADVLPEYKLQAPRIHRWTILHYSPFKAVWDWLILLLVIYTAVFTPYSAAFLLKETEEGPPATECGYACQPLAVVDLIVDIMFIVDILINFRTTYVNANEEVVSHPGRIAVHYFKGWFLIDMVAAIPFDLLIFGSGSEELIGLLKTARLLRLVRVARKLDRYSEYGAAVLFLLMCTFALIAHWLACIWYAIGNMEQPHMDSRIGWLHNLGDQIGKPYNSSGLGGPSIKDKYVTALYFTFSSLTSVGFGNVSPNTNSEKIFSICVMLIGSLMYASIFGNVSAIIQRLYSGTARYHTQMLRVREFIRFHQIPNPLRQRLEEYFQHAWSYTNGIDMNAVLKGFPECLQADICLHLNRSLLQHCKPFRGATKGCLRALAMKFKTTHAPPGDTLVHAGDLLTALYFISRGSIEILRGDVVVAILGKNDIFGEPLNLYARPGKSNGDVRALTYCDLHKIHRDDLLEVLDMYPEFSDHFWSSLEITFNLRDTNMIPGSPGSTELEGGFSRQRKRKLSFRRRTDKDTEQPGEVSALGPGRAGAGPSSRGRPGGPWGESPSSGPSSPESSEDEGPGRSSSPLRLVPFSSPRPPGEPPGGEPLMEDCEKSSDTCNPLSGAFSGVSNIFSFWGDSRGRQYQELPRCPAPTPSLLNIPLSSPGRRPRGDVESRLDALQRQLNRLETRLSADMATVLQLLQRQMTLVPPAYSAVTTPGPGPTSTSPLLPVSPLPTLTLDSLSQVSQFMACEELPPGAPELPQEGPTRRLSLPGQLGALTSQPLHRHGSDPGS

Structure (SMILES) | hERG current change (%, negative = inhibition) at 1uM
Cc1cccc(NC(=O)CSc2nnc(-c3ccccc3Br)o2)c1C | 0.594%
O=C(CSc1ncc(C(=O)O)n1-c1ccc(F)cc1)NCc1ccc2c(c1)OCO2 | 20.2%
Cc1ccc(/C=N/Nc2nnc(Cc3ccccc3)c(=O)[nH]2)o1 | 11.5%
O=C(Nc1nc2ccccc2s1)c1c(F)cccc1Cl | 12.3%
Cc1cccc(OCC(=O)NNc2c3ccccc3nc3ccccc23)c1 | 6.8%
Cc1ccc(CN2CCSc3ccc(C(=O)NCc4ccccn4)cc32)cc1 | -26.3%
COc1ccc(NC(=O)Cn2c(=O)n(CC3CCCO3)c(=O)c3cc(OC)c(OC)cc32)c(OC)c1 (centres unmarked) | 8.18%
Cc1ccc(C)c(OCCn2cc(/C=C(\C#N)C(=O)NCC3CCCO3)c3ccccc32)c1 (centres unmarked) | 13.4%
Cc1ccc(-n2c([O-])nc(-[n+]3ccccc3)c2C=O)cc1 | 12.6%
Cc1cc(C(C#N)c2ccc(Cl)cc2)c(Cl)cc1NC(=O)c1cc(I)cc(I)c1O (centres unmarked) | 13%
Cc1cccc(C)c1NC(=O)C(C)Sc1n[nH]c(-c2ccncc2)n1 (centres unmarked) | 9.74%
COc1ccccc1OC(C)C(=O)N1CC(=O)Nc2ccccc21 (centres unmarked) | 14.4%
O=c1c(S(=O)(=O)c2ccc(Cl)cc2)cn(Cc2ccccc2F)c2ccc(F)cc12 | 21.6%
CC1(C)CC(=O)C2=C(C1)NC(=O)CC2c1ccc(F)cc1 (centres unmarked) | 0.687%
Cc1cccc2cc(C#N)c(SCC(=O)NCC3CCCO3)nc12 (centres unmarked) | 1.51%
CCCCCCCCC(=O)N/N=C/c1cccc(Br)c1 | 4.03%
COc1ccc(C)cc1NC(=O)CN1C(=O)COc2ccc(S(=O)(=O)N3CCCCC3)cc21 | 9.63%
COc1ccc(OC)c2c(C)cc(NCCN3CCOCC3)nc12 | -6.45%
O=C(CN1C(=O)NC2(CCCC2)C1=O)N1CCN(S(=O)(=O)c2cccc(F)c2)CC1 | 15.1%
Cc1nc2ccccc2c2oc(C(=O)NCCCN3CC(C)CC(C)C3)cc12 (centres unmarked) | -6.06%
CC(C)CNS(=O)(=O)c1cc(C(=O)N2CC(C)OC(C)C2)c(Cl)cc1Cl (centres unmarked) | 9.91%
CC(=O)N1CCC(N(C(=O)Nc2ccc(Cl)cc2)C(C)C)CC1 | 6.95%

Structure (SMILES) | hERG current change (%, negative = inhibition) at 1uM
Cc1ccc(-c2cc(-c3ccc(C)cc3)[n+](-c3ccc(C(=O)[O-])cc3)c(-c3ccc(C)cc3)c2)cc1 | 8.45%
C/C(=N\NC(=O)Cc1ccc(F)cc1)c1ccc(O)cc1 | 4.1%
O=C(OCC(=O)N1CCOCC1)c1ccc2ccccc2c1O | 4.85%
COc1ccc(NC(=O)c2cc3n(n2)C(C(F)(F)F)CC(c2ccc4c(c2)OCO4)N3)cc1OC (centres unmarked) | 8.99%
COc1ccc(N2CCN(S(=O)(=O)CCNC(=O)CCCc3ccccc3)CC2)cc1 | 6.55%
CC(C)N1CC(COc2ccc(Br)cc2)OC1=O (centres unmarked) | -7.76%
CC(C)(Oc1ccc(Cl)cc1)C(=O)OCC(=O)Nc1ncc(Cl)cc1Cl | 6.92%
Cc1ccc(-c2cc(C(F)F)nc(N3CCC(C)CC3)n2)cc1 | 12.9%
Cc1cccc(N2CCN(C(=O)c3ccccc3NC(=O)C3CCCCC3C(=O)O)CC2)c1 (centres unmarked) | 9.99%
COc1ccccc1NC(=O)CSc1ccc(-c2cccs2)nn1 | -3.98%
COCc1nnc(NC(=O)c2cc(C(=O)OC)cc([N+](=O)[O-])c2)s1 | 2.32%
COc1nc(NC(C)C)nc(NC(C)C)n1 | 12.6%
CCOC(=O)c1cnc(-n2nc(C)cc2C)nc1NCCc1ccccc1 | 8.69%
COC(=O)c1c(N2C(=O)Nc3ccccc3N2O)sc2c1CCCC2 | 5.18%
CCOC(=O)C(N)CSC1CC(=O)N(CCc2ccccc2)C1=O.Cl (centres unmarked) | 12.9%
COc1cc(/C=N/n2cnnc2)ccc1OS(=O)(=O)c1ccccc1[N+](=O)[O-] | -11.6%
CCOC(=O)N1CCN(Cc2nc3c(c(=O)n(C)c(=O)n3C)n2Cc2cccc(C)c2)CC1 | -13.3%
COCCNC(=S)N/N=C(\C)c1ccc(Cl)c(Cl)c1Cl | 14.2%
O=C(O)CC(NC(=O)CC(c1ccccc1)c1ccccc1)c1cccc([N+](=O)[O-])c1 (centres unmarked) | 9.61%
CCOc1ccccc1NC(=S)/C(=C(\[O-])c1ccc2c(c1)OCCO2)[n+]1ccc(CC)cc1 | 4.26%
Cc1cccc(C(=O)NCCC(=O)Nc2nc(C)c(Cc3ccc4c(c3)OCO4)s2)c1 | 5.99%
O=C(O)c1ccccc1SCc1csc(-c2ccccc2)n1 | 9.33%

— PMC4336329 (PLoS ONE, 2015)
